The source holds more than one record for some entries. The other results are left out here. There may be further records. The records of an entry are repeats across runs, samples, wells, individuals or studies. Marks such as [2022-09] give the month of the run.
System: 388556-164-R-J1-PDC complex spheroid viability
Experiment: Anticancer human tumor 388556-164-R-J1-PDC patient-derived colon adenocarcinoma cell line growth inhibition [RAS]
Conditions: for viability, T/C: stronger effect = lower value; for IC50: compound alone
Description: RAS pathway inhibitors in Combinations in Complex Spheroids
A high-throughput screen of multi-cell type tumor spheroids was designed to identify active combinations of RAS pathway inhibitors and targeted small molecules. Complex spheroids include a stromal component modeled by human endothelial cells (HUVEC) and fibroblasts modeled by human mesenchymal stem cells (MSCs). The concentration ranges selected for each drug and investigational agent were based upon clinically achievable concentrations if the clinical Cmax of the agent was known.
Compounds. The drugs and investigational agents: abemaciclib (NSC768073), cobimetinib (NSC768068), divarasib (GDC6063, NSC841802), docetaxel (NSC628503), GDC-1971 (RLY-1971, NSC841576), gemcitabine (NSC613327), inavolisib (NSC800729), ipatasertib (NSC767898), KB-0742 (NSC834161), MRTX-1133 (NSC836407), osimertinib (NSC779217), RMC-4630 (NSC839698), RMC-6236 (NSC851965), RMC-6291 (NSC852671), Ro-3306 (NSC812927), sapanisertib (NSC764658), SN-38 (NSC673596), staurosporine (NSC755774), SY5609 (NSC837396), and tovorafenib (DAY101, NSC766906), were obtained from the National Cancer Institute (NCI) Developmental Therapeutics Program Chemical Repository. The FDA-approved anticancer drug set is available from the NCI Developmental Therapeutics Program. […] The stock solutions were prepared in dimethyl sulfoxide (DMSO, Sigma-Aldrich, St. Louis, MO, cat. D2650) at 800-fold the tested concentration and stored at -70 degrees C prior to their use. All drugs and investigational agents were tested over a range starting from a high concentration at or near the clinical Cmax and decreasing in half-log increments. If the clinical Cmax for an agent had not been determined, the highest concentration tested was 10 microM.
Cell Culture. All cells were maintained in an incubator at 37 degrees C and 5% CO2 with 95% humidity. The PDC lines were cultured according to standard operating procedures established by the NCI PDMR. All PDCs were thawed and cultured in Matrigel-coated flasks prepared with a working solution of 1X Ham's F-12 nutrient mix, without supplementation (Invitrogen, Waltham, MA, cat. 11765054), 100 U/mL penicillin-streptomycin (Invitrogen, cat. 15140122), and 2.5% Matrigel (Corning Inc., Corning, NY, cat. 354248) for the first three passages. The 362531-283-R-J2-PDC and 782815-120-R-J1-PDC lines were cultured in 6C/Colon 1B media, which includes advanced DMEM/F-12 (Thermo Fisher Scientific, cat. 12634028), 10 mM HEPES (Thermo Fisher Scientific, cat. 15630080), 1X GlutaMAX supplement (Thermo Fisher Scientific, cat. 35050061), 0.1 mg/mL primocin (InvivoGen, San Diego, CA, cat. ant-pm-2), 10% defined fetal bovine serum, heat inactivated (HyClone Laboratories Inc., Logan, UT, cat. SH30070.03HI), 50% L-WRN conditioned media (ATCC, cat. CRL-3276), 1.25 mM N-Acetyl-L-cysteine (Sigma-Aldrich, cat. A9165), 10 mM nicotinamide (Sigma-Aldrich, cat. N0636), 1X B-27 supplement (Thermo Fisher Scientific, cat. 17504044), 1X N-2 supplement (Thermo Fisher Scientific, cat. 17502048), 50 ng/mL human EGF (Thermo Fisher Scientific, cat. PHG0311), and 10 microM Y-27632 dihydrochloride (Tocris Bioscience, cat. 1254). The K12877-001-R-J1-PDC line was cultured in 6I media, which includes all 6C/Colon 1B media plus 10 ng/mL human FGF-10 (PeproTech, cat. 100-26), 1 ng/mL human FGF-2 (PeproTech, cat. 100-18B), 1 µM prostaglandin E2 (Tocris Bioscience, cat. 2296), […] hydrocortisone (Sigma-Aldrich, cat. H4001), and […] bovine insulin (Sigma-Aldrich, cat. I6634). The K86415-001-R-J1-PDC line was cultured in 6D media, which includes all 6C/Colon 1B media components minus the L-WRN conditioned media. The 485176-168-R4-J1-PDC was cultured in PANC media, which includes all 6C/Colon 1B media plus 100 ng/mL human FGF-10 (PeproTech, cat. 100-26), 500 nM SB-431542 (Selleckchem, cat. S1067), and 10 nM gastrin (Tocris Bioscience, cat. 3006). […]
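Note: spheroids exposed to compound for 7 days before readout.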
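Throughout, for viability, T/C: 100% = DMSO vehicle control luminescence.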

Q: How did the viability, T/C (compound alone 0.01 µM) turn out when C=CC(=O)N1CCN(c2nc(OCC3CCCN3C)nc3c(F)c(-c4nc(N)cc(C)c4C(F)(F)F)c(Cl)cc23)C(C)C1 (stereo not given) was run?
A: 89.1% [2024-08] and 103, 104, 96.8, 107, 112, 99.4, 93.8, 90.7, 117, 97% [2024-09]

Q: What does the source list for CC(C)n1nc(-c2ccc3oc(N)nc3c2)c2c(N)ncnc21?
A: IC50: 59.2 nM, 49.7 nM [2024-08] and 100 nM, > 100 nM [2024-09]; viability, T/C (compound alone 0.001 µM): 77.4%, 100% [2024-08] and 104%, 97.7% [2024-09]

Q: How did the viability, T/C (compound alone 3.16 µM) turn out when CCC(CC)c1cc(NC2CCC(N)C2)n2nccc2n1 (stereo not given) was run?
A: 55.6%, 15.3% [2024-08] and 47.1%, 38.1% [2024-09]

Q: For O=C(c1ccc(F)c(F)c1Nc1ccc(I)cc1F)N1CC(O)([C@@H]2CCCCN2)C1, which viability, T/C (compound alone 0.00316 µM) is on record?
A: 97.9%, 105% [2024-08] and 77.7%, 98.6% [2024-09]

Q: With CC(Nc1ccc2c(c1)OCCn1cc(N3C(=O)OCC3C(F)F)nc1-2)C(N)=O (stereo not given) as the compound, how does the viability, T/C (compound alone 0.0316 µM) read?
A: 94.2%, 92.7% [2024-08] and 83.9%, 110% [2024-09]

Q: Which results are given for Cc1nc(N2CCC3(CC2)COC(C)C3N)c(CO)nc1Sc1ccnc(N)c1Cl (stereo not given)?
A: IC50: 9.27 µM, 2.18 µM [2024-08] and 3.83 µM, 5.08 µM [2024-09]; viability, T/C (compound alone 0.0316 µM): 107%, 97.2% [2024-08] and 75.8%, 105% [2024-09]

Q: For CC(C)NCC(C(=O)N1CCN(c2ncnc3c2C(C)CC3O)CC1)c1ccc(Cl)cc1 (stereo not given), which viability, T/C (compound alone 0.0316 µM) is on record?
A: 109%, 103% [2024-08] and 82.6%, 122% [2024-09]

Q: For C=CC(=O)Nc1cc(Nc2nccc(-c3cn(C)c4ccccc34)n2)c(OC)cc1N(C)CCN(C)C, which viability, T/C (compound alone 0.00316 µM) is on record?
A: 104%, 95.3% [2024-08] and 76.9%, 97.7% [2024-09]

From PubChem BioAssay AID2060907 (Molecular Pharmacology Branch, DTP, NCI, 2025)
